Measurements reported in US20250177546A1, “ROR1-TARGETED BINDING MOLECULE AND USE THEREOF” (SANYOU BIOPHARMACEUTICALS CO., LTD., priority 2022, published 2025).

How the values were obtained:
HT-29 tumor cells = experiment: ADC internalization efficiency by FACS, HT-29; format: cell-based, human; details: relative to positive control ADC
NCI-N87 tumor = experiment: ADC efficacy in mouse model bearing NCI-N87 tumor; format: in vivo; details: for Tumor growth inhibition (TGI): tail vein once a week, 3 administrations

B1: B31-H3L3-MMAE (conjugate)
heavy: EVQLVESGGGLVQPGGSLRLSCAASGFTFSRYAMSWVRQAPGKGLEWVASISRGGSTYYADSVKGRFTISRDNSKNTLYLQMNSLRAEDTAVYYCASYFGNYDAMDYWGQGTTVTVSS[human IgG1 constant region not listed]
light: DIQMTQSPSSLSASVGDRVTITCRASQDINNYVSWFQQKPGKAPKSLIYRANRLVSGVPSRFSGSGSGTDFTFTISSLQPEDFATYYCLQFDEFPYTFGGGTKLEIKRTVAAPSVFIFPPSDEQLKSGTASVVCLLNNFYPREAKVQWKVDNALQSGNSQESVTEQDSKDSTYSLSSTLTLSKADYEKHKVYACEVTHQGLSSPVTKSFNRGEC
HT-29 tumor cells
  internalization rate in HT-29 cells: slightly higher than that of the positive control ADC
NCI-N87 tumor; 5 mpk, day 9
  Tumor growth inhibition (TGI): −1.37%
NCI-N87 tumor; 5 mpk, day 13
  Tumor growth inhibition (TGI): 50.63%
NCI-N87 tumor; 5 mpk, day 16
  Tumor growth inhibition (TGI): 66.26%
NCI-N87 tumor; 5 mpk, day 20
  Tumor growth inhibition (TGI): 78.22%
NCI-N87 tumor; 5 mpk, day 23
  Tumor growth inhibition (TGI): 83.03%
NCI-N87 tumor; 5 mpk, day 27
  Tumor growth inhibition (TGI): 90.91%
NCI-N87 tumor; 5 mpk, day 30
  Tumor growth inhibition (TGI): 91.62%
NCI-N87 tumor; 5 mpk, day 34
  Tumor growth inhibition (TGI): 94.93%
NCI-N87 tumor; 5 mpk, day 37
  Tumor growth inhibition (TGI): 93.89%
NCI-N87 tumor; 5 mpk, day 41
  Tumor growth inhibition (TGI): 95.15%
NCI-N87 tumor; 5 mpk, day 44
  Tumor growth inhibition (TGI): 94.2%
NCI-N87 tumor; 5 mpk, day 48
  Tumor growth inhibition (TGI): 94.68%
NCI-N87 tumor; 5 mpk, day 51
  Tumor growth inhibition (TGI): 91.52%
NCI-N87 tumor; 10 mpk
  tumor inhibition effect relative to 99961.1-MMAE: comparable to that of 99961.1-MMAE molecule
NCI-N87 tumor; 10 mpk, day 9
  Tumor growth inhibition (TGI): 9.34%
NCI-N87 tumor; 10 mpk, day 13
  Tumor growth inhibition (TGI): 70.29%
NCI-N87 tumor; 10 mpk, day 16
  Tumor growth inhibition (TGI): 85.24%
NCI-N87 tumor; 10 mpk, day 20
  Tumor growth inhibition (TGI): 93.39%
NCI-N87 tumor; 10 mpk, day 23
  Tumor growth inhibition (TGI): 96.64%
NCI-N87 tumor; 10 mpk, day 27
  Tumor growth inhibition (TGI): 98.1%
NCI-N87 tumor; 10 mpk, day 30
  Tumor growth inhibition (TGI): 98.59%
NCI-N87 tumor; 10 mpk, day 34
  Tumor growth inhibition (TGI): 98.9%
NCI-N87 tumor; 10 mpk, day 37
  Tumor growth inhibition (TGI): 99.04%
NCI-N87 tumor; 10 mpk, day 41
  Tumor growth inhibition (TGI): 99.11%
NCI-N87 tumor; 10 mpk, day 44
  Tumor growth inhibition (TGI): 99.31%
NCI-N87 tumor; 10 mpk, day 48
  Tumor growth inhibition (TGI): 99.48%
NCI-N87 tumor; 10 mpk, day 51
  Tumor growth inhibition (TGI): 99.31%
